Source: paper PMC4336329 (PLoS ONE, 2015)
The campaign covered roughly 310,000 compounds. About 14,000 (4.5%) showed an effect of 50% or more. The effect is printed as a negative number. The list shows a part of the results.

Biological target: human ether-à-go-go-related gene (hERG) potassium channel (human, UniProt Q12809)
Assay: primary screen, population patch clamp on CHO cells stably expressing hERG
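Further: peak tail current of the secondary pulse compared with the same well before compound.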

Sequence of human ether-à-go-go-related gene (hERG) potassium channel (Q12809 whole entry, looked up): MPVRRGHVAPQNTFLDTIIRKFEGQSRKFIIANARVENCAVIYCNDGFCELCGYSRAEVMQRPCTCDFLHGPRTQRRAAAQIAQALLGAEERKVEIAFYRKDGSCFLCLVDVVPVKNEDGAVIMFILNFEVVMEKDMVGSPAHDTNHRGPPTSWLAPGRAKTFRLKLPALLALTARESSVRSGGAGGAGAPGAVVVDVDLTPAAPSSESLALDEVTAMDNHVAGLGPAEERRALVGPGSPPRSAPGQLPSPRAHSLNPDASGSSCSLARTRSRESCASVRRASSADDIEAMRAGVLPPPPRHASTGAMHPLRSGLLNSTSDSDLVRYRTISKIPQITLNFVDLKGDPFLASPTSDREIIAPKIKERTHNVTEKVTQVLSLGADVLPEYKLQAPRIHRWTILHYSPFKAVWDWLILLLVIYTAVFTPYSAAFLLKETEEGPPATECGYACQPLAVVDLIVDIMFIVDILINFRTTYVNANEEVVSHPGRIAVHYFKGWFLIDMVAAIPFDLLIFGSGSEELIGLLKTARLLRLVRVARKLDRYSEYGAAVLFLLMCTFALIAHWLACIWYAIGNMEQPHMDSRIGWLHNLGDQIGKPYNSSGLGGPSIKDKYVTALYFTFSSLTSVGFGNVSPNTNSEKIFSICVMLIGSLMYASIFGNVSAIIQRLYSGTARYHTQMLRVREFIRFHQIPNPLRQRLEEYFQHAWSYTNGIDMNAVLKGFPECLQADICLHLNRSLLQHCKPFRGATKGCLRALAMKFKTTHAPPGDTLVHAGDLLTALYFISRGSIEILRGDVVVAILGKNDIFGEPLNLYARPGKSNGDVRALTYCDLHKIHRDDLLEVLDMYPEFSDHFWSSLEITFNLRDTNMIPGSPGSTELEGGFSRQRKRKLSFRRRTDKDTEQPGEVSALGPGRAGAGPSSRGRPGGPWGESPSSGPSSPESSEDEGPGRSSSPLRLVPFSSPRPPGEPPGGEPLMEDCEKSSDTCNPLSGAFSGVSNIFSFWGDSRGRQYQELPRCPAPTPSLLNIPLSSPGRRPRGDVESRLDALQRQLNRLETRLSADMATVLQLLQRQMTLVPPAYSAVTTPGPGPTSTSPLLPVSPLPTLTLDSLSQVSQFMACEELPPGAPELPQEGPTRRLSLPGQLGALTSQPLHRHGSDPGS

Structure (SMILES) | hERG current change (%, negative = inhibition) at 10uM [%]
Oc1ccccc1C(Nc1nccs1)c1ccc2cccnc2c1O (stereo not shown) | 17.9
CCN(C(=O)c1cn(C)c(=O)c2cc(OC)c(OC)cc12)c1cc(OC)ccc1OC | 3.82
O=C1NC(=O)C(CC(=O)N(c2ccccc2)C2(C(=O)NC3CCCC3)CCCCC2)N1 (stereo not shown) | 0.074
CC(Oc1ccccc1[N+](=O)[O-])C(=O)N/N=C/c1ccoc1 (stereo not shown) | -6.7
CC1C(=O)Nc2ccccc2N1C(=O)c1ccc(F)cc1F (stereo not shown) | 3.22
COc1ccc(NC(=S)NC(=O)c2cncc(Br)c2)cc1 | 13.6
O=C(NCCc1nnc2ccc(NCc3ccccc3Cl)nn12)c1ccccc1 | 10.4
CCN(Cc1nc2ccccc2c(=O)[nH]1)C(=O)c1ccc(C)c(NC(=O)c2ccco2)c1 | -24.6
O=C(OCc1ccccc1F)c1cc2ccccc2cc1O | 20.4
COc1ccc(C2C(C(C)=O)=C(C)Nc3ncnn32)cc1[N+](=O)[O-] (stereo not shown) | 24.6
CNc1nc(SC)nc(N2CCOCC2)n1 | -1.98
COc1ccc(S(=O)(=O)N2CCOC2CNC(=O)C(=O)NCC(C)C)cc1 (stereo not shown) | 7.26
COc1cccc(CC(=O)OCC(=O)NCCc2ccc(F)cc2)c1 | -1.37
Cc1cc(C)c2oc(-c3ccc(C)c(NC(=S)NC(=O)/C=C/c4ccco4)c3)nc2c1 | 11.2
CCCNc1nc2c(c(=O)[nH]c(=O)n2C)n1Cc1ccc(F)cc1 | -4.66
Cc1ccc(SCc2cc(=O)[nH]c(/N=C(\N)Nc3ccccc3Sc3ccccc3)n2)cc1 | 3.89
Cc1ccc(Nc2nc(CSc3nnc(-c4cccnc4)n3-c3ccccc3F)cs2)cc1 | -41.6
CCOC(=O)CN1C(=O)C(=O)c2cccc(C)c21 | 14.1
CCOc1ccc(NC(=O)C2Cc3ccccc3CN2S(=O)(=O)CC)cc1 (stereo not shown) | -10.7
CS(=O)(=O)c1ccc(C(=O)N2CCc3ccccc3C2)cc1 | 8.96
CCN(CC)CCNc1nc(C(F)(F)F)nc2c1nnn2Cc1ccccc1 | -38.2
O=C(NCCc1ccccc1)c1cccc(S(=O)(=O)N2CCCCC2)c1 | 5.18

Structure (SMILES) | hERG current change (%, negative = inhibition) at 10uM [%]
COC(=O)c1cc(C(=O)c2c(C)cc3ccccn23)cc([N+](=O)[O-])c1 | 16.5
Cc1onc(-c2c(F)cccc2Cl)c1C(=O)N1C=CC(C(F)(F)Cl)=NCC1 | -13.4
CC(C)(C)NC(=O)CN(CCN1CCOCC1)C(=O)CNS(=O)(=O)c1ccccc1 | 19.4
COC(=O)N1CC(=O)N(OC)C1c1ccc(Cl)cc1Cl (stereo not shown) | -10.8
O=C(CCn1cnc2ccccc2c1=O)Nc1cccc(Cl)c1 | 0.577
O=C(NNC(=S)Nc1cccc(Cl)c1)c1ccccc1 | 21.7
Fc1ccc(OCc2nn[nH]n2)c(F)c1 | 23.7
CCC(=NC(C)c1ccccc1)c1c(O)[nH]c(=O)[nH]c1=O (stereo not shown) | -6.08
CCC(=O)NC1CC2CCCC(C1)N2Cc1ccc(C)cc1 (stereo not shown) | -37.4
Cc1cc(C)nc(NS(=O)(=O)c2ccc(Br)s2)c1.Cl | -5.41
O=C(NC1CCCCC1)c1cc(C2CC2)nn1-c1ccccc1 | -51.2
Cc1ccc2nc(SC(C(=O)c3ccccc3)c3ccccc3)nc(C)c2c1 (stereo not shown) | 4.7
O=C(Nc1ccccc1OC(F)F)c1ccccc1 | 11.5
CC(C)CNC(=O)c1cccc(NC(=O)CSc2ccccc2)c1 | -13
Cc1ccc(CCNS(=O)(=O)c2c(C)nc3sccn3c2=O)cc1 | -9.27
CCOC(=O)C1=C(c2ccccc2)NC(=O)NC1c1cc(OC)c(OC)c(OC)c1 (stereo not shown) | 11.1
CC1(NC(=O)c2ccccc2)CCN(CCCc2ccccc2)C1=O (stereo not shown) | 10
CCOC(=O)c1c(C=O)c2ccccc2n1Cc1ccccc1 | 1.88
COC(=O)c1cc(NC(=O)CN(c2ccc3c(c2)OCO3)S(C)(=O)=O)ccc1Cl | -8.58
COc1ccc(/C(C)=N/NC(=O)CN(c2ccc(OC)cc2)S(=O)(=O)c2ccccc2)cc1 | 29.1
Cc1ccc(-c2nc(SCC(=O)Nc3cc(S(=O)(=O)N4CCCCC4)ccc3Cl)n[nH]2)cc1 | -5.01
CCC(C(=O)NC1CCCC1)N(C(=O)Cn1nnc(-c2ccc(C)o2)n1)c1ccc(OC)cc1 (stereo not shown) | 5.12

Structure (SMILES) | hERG current change (%, negative = inhibition) at 10uM [%]
Cn1c(O)c(N=NC(=O)CNC(=O)c2ccco2)c2ccccc21 | 0.0891
O=C(N/C(=C\c1cccc(Br)c1)C(=O)N1CCCCC1)c1ccco1 | -0.311
CCOc1ccccc1Nc1nnc(C)c(=O)[nH]1 | 9.4
COc1ccc(OC)c(/C=N\NC(=O)c2ccc(COc3ccc(C)cc3[N+](=O)[O-])o2)c1 | 16.2
O=C(COc1ccc([N+](=O)[O-])cc1)NNC(=O)c1cccnc1 | 13.2
O=C(COc1cccc(Cl)c1)Nc1ccc(N2CCOCC2)cc1 | 0.239
CC1(C)OC(=O)C(=Cc2ccc[nH]2)C(=O)O1 | 0.66
COc1ccccc1CCc1nnc(CCC(=O)NC(C)Cc2cccnc2)o1 (stereo not shown) | 13.2
Cc1ccc(C(=O)Nc2ccc(CN3CCCCC3)cc2)c(C)c1 | -35.2
Cl.O=C1CC(c2ccccc2)CC2=C1CN(C1CCCCC1)CN2 (stereo not shown) | 14.8
COC(=O)C1=C(c2cccc(C#N)c2)C[C@@H]2CC[C@H]1N2C(=O)NCCOc1ccccc1Cl | -24.8
CNc1nc(SCC(=O)OC)nc(N2CCOCC2)n1 | 11.3
O=C1CCc2cc(S(=O)(=O)NC3CCCCC3)ccc2N1 | -19.3
OC1(c2cccnc2)CCN(Cc2nnnn2Cc2ccccc2)CC1 | -1.59
Cc1cc(=O)[nH]c(SCCOc2ccc3c(c2)CCC3)n1 | 13.1
CCC(C)NC(=O)NC(=O)CSc1nnc(-c2ccccc2F)n1C1CC1 (stereo not shown) | 12.1
CC(Cc1cccs1)NC(=O)Nc1ccc(F)cc1 (stereo not shown) | 18.2
O=C(N/C(=C\c1ccco1)C(=O)N1CCC(O)CC1)c1ccccc1 | 27.7
O=C1C=C(c2ccc(-c3ccccc3)cc2)C[C@@H](c2ccc(Cl)cc2)C1 | 21.8
Cc1cccc(-n2c(=O)[nH]c3c(C(N)=O)nc(-c4ccccc4Cl)nc32)c1 | -2.8
CC(CNCc1ccc2c(c1)OCO2)NCc1ccc2c(c1)OCO2 (stereo not shown) | -54.5
CC(=O)N(/N=C/c1ccc(C)cc1)c1nc(CCl)cs1 | -8

Structure (SMILES) | hERG current change (%, negative = inhibition) at 10uM [%]
CCn1c(=O)c(C(=O)CN2CCCc3ccccc32)c(N)n(Cc2ccccc2)c1=O | -6.1
O=C(O)C1CC=CCC1C(=O)N1CCN(c2nc(-c3ccccc3Cl)c3cc(Br)ccc3n2)CC1 (stereo not shown) | -19.3
O=C(Nc1ccc(-c2ccc3nncn3n2)cc1)C1CCCC1 | -25.9
Cc1cc(C)c2oc(-c3ccc(Cl)c(NC(=O)c4ccc(C#N)cc4F)c3)nc2c1 | -6.92
COc1ccc(C(CC(=O)[O-])NS(=O)(=O)c2ccc(C)cc2)cc1.[Na+] (stereo not shown) | -2.43
COc1ccc(C2SCCN2S(=O)(=O)c2ccc(NC(C)=O)cc2)cc1 (stereo not shown) | -10.4
CCOCCCNC(=O)/C(C#N)=C/c1cc(C)c(O)c(C)c1 | 11.9
O=C1NCCCC1C(=O)N/N=C/c1cc([N+](=O)[O-])ccc1O (stereo not shown) | 6.07
CN1CCN(c2ccccc2NC(=O)c2ccc([N+](=O)[O-])cc2Cl)CC1 | -34.9
Cc1nn(CCC#N)c(N)c1C1(O)C(=O)Nc2c(Cl)cc(Cl)cc21 (stereo not shown) | 6.93
CN1CCN(NC(=O)c2ccc(Cl)c([N+](=O)[O-])c2)CC1 | 8.74
Cc1cccc2nc(CSc3nc4[nH]ncc4c(=O)n3-c3ccccc3Cl)cc(=O)n12 | -21.5
O=C(CCC1CCCC1)NCCCN1CCOCC1 | 5.52
Cc1cc(C)n2cnnc2n1 | 42.1
Cc1cc(=O)oc2c(CN3CCCCC3)c(O)c(Cl)cc12 | -5.43
O=C(C[n+]1cc(Br)cc2ccccc21)c1ccc(Cl)cc1.[Br-] | -49.8
CCCc1nnc(NC(=O)CCS(=O)(=O)c2ccccc2)s1 | 4.2
COC(=O)C1=C(c2cccc(OC)c2OC)C[C@@H]2CC[C@H]1N2C(=O)NC(C)C | 13.7
CC(C)(Oc1ccc(Cl)cc1)C(=O)Nc1ccc2oc(=O)ccc2c1 | -28.6
O=C(CN1C2CCCC1CC(NC(=O)c1ccccc1)C2)NC1CC1 (stereo not shown) | 26.9
O=C(Cn1nc(-c2ccc(Cl)cc2)ccc1=O)N1CCN(c2ccccc2)CC1 | -35.9
CC12CCC(C(=O)Nc3ccccc3)(C/C1=N\O)C2(C)C (stereo not shown) | 10.9
